The other results are listed elsewhere or left out.
Key:
Experiment in all cases: glycan array binding signal (z-score within array); higher = stronger binding
Details in all cases: glycan notation: IUPAC condensed, linker removed
[1] = target: Neu5Ac(a2-6)Gal(b1-4)GlcNAc(b1-3)[Neu5Ac(a2-6)Gal(b1-4)GlcNAc(b1-6)]GalNAc
Summary of the method: (§1)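 The Consortium for Functional Glycomics database supplied 3228 glycan arrays, of which those lacking an available protein sequence were dropped. The binding signal, a within-array Z-score, was averaged across arrays of the same protein sequence and across linkers. Negative scores can be read as non-binding.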

[2] = target: Neu5Ac(a2-6)Gal(b1-4)GlcNAc(b1-6)GalNAc
Summary of the method: as §1

[3] = target: Neu5Ac(a2-6)Gal(b1-4)GlcNAc(b1-6)[Gal(b1-3)GlcNAc(b1-3)]Gal(b1-4)Glc
Summary of the method: as §1

[4] = target: Neu5Ac(a2-6)Gal(b1-4)GlcNAc(b1-6)[Gal(b1-3)]GalNAc
Summary of the method: as §1

[5] = target: Neu5Ac(a2-6)Gal(b1-4)GlcNAc6S
Summary of the method: as §1

Neu5Ac(a2-6)GalNAc = target: Neu5Ac(a2-6)GalNAc
Summary of the method: as §1

[6] = target: Neu5Ac(a2-6)GalNAc(b1-4)GlcNAc
Summary of the method: as §1

[7] = target: Neu5Ac(a2-6)GalNAc(b1-4)GlcNAc6S
Summary of the method: as §1

[8] = target: Neu5Ac(a2-6)GlcNAc(b1-4)GlcNAc
Summary of the method: as §1

[9] = target: Neu5Ac(a2-6)GlcNAc(b1-4)GlcNAc(b1-4)GlcNAc
Summary of the method: as §1

Neu5Ac(a2-8)Neu5Ac = target: Neu5Ac(a2-8)Neu5Ac
Summary of the method: as §1

[10] = target: Neu5Ac(a2-8)Neu5Ac(a2-3)Gal(b1-3)GalNAc(b1-4)[Neu5Ac(a2-3)]Gal(b1-4)Glc
Summary of the method: as §1

[11] = target: Neu5Ac(a2-8)Neu5Ac(a2-3)Gal(b1-3)GalNAc(b1-4)[Neu5Ac(a2-8)Neu5Ac(a2-3)]Gal(b1-4)Glc
Summary of the method: as §1

[12] = target: Neu5Ac(a2-8)Neu5Ac(a2-3)Gal(b1-4)Glc
Summary of the method: as §1

[13] = target: Neu5Ac(a2-8)Neu5Ac(a2-3)Gal(b1-4)GlcNAc
Summary of the method: as §1

[14] = target: Neu5Ac(a2-8)Neu5Ac(a2-3)[Gal(b1-3)GalNAc(b1-4)]Gal(b1-4)Glc
Summary of the method: as §1

[15] = target: Neu5Ac(a2-8)Neu5Ac(a2-3)[GalNAc(b1-4)]Gal(b1-4)Glc
Summary of the method: as §1

[16] = target: Neu5Ac(a2-8)Neu5Ac(a2-8)Neu5Ac
Summary of the method: as §1

[17] = target: Neu5Ac(a2-8)Neu5Ac(a2-8)Neu5Ac(a2-3)Gal(b1-4)Glc
Summary of the method: as §1

[18] = target: Neu5Ac(a2-8)Neu5Ac(a2-8)Neu5Ac(a2-3)[Gal(b1-3)GalNAc(b1-4)]Gal(b1-4)Glc
Summary of the method: as §1

[19] = target: Neu5Ac(a2-8)Neu5Ac(a2-8)Neu5Ac(a2-3)[GalNAc(b1-4)]Gal(b1-4)Glc
Summary of the method: as §1

[20] = target: Neu5Ac(a2-8)Neu5Ac(a2-8)Neu5Ac(a2-8)Neu5Ac(a2-3)[GalNAc(b1-4)]Gal(b1-4)Glc
Summary of the method: as §1

[21] = target: Neu5Ac(a2-8)Neu5Gc(a2-3)Gal(b1-4)GlcNAc
Summary of the method: as §1

[22] = target: Neu5Ac(b2-6)Gal(b1-4)GlcNAc
Summary of the method: as §1

Neu5Ac(b2-6)GalNAc = target: Neu5Ac(b2-6)GalNAc
Summary of the method: as §1

[23] = target: Neu5Ac9Ac(a2-3)Gal(b1-3)GlcNAc
Summary of the method: as §1

[24] = target: Neu5Ac9Ac(a2-3)Gal(b1-4)GlcNAc
Summary of the method: as §1

[25] = target: Neu5Ac9Ac(a2-6)Gal(b1-4)GlcNAc
Summary of the method: as §1

[26] = target: Neu5Gc(a2-3)Gal(b1-3)GlcNAc
Summary of the method: as §1

[27] = target: Neu5Gc(a2-3)Gal(b1-3)[Fuc(a1-4)]GlcNAc
Summary of the method: as §1

Neu5Gc(a2-3)Gal(b1-4)Glc = target: Neu5Gc(a2-3)Gal(b1-4)Glc
Summary of the method: as §1

[28] = target: Neu5Gc(a2-3)Gal(b1-4)GlcNAc
Summary of the method: as §1

[29] = target: Neu5Gc(a2-3)Gal(b1-4)GlcNAc(b1-3)Gal(b1-4)GlcNAc(b1-2)Man(a1-3)[Neu5Gc(a2-3)Gal(b1-4)GlcNAc(b1-3)Gal(b1-4)GlcNAc(b1-2)Man(a1-6)]Man(b1-4)GlcNAc(b1-4)GlcNAc
Summary of the method: as §1

[30] = target: Neu5Gc(a2-3)Gal(b1-4)[Fuc(a1-3)]GlcNAc
Summary of the method: as §1

[31] = target: Neu5Gc(a2-6)Gal(b1-4)GlcNAc
Summary of the method: as §1

Neu5Gc(a2-6)GalNAc = target: Neu5Gc(a2-6)GalNAc
Summary of the method: as §1

[32] = target: Neu5Gc(a2-8)Neu5Ac(a2-3)Gal(b1-4)GlcNAc
Summary of the method: as §1

[33] = target: Neu5Gc(a2-8)Neu5Gc(a2-3)Gal(b1-4)GlcNAc
Summary of the method: as §1

B1: Epa3 (Candida glabrata), Q6VBI8_CANGB (protein)
chain: MGSSHHHHHHSSGLVPRGSHMNDLGFSLFEKRELSSQNPFGYPIGCSPQDVAIIPGLTMELYSYPIVSGTPPNCYDASYVDPEYPRTGYLKRKMVGKSTGVTGNLNYKYSVEKACMVKYGNLPAGYNYNEPLTVSNFTMILYGYFKAQTTGLHTFFVNADDLLYINFGAGNAFDCCKREDSKTKLGEYVAYDIWHVDSSKNKVSLFLEKDLYYPIRMFFNNIGKDSSLDLSFSVNGATDQISDFSGYLYSVPDQPDTCPAHIGYDTTCR
glycan array binding signal (z-score) [1]: -0.227 | glycan array binding signal (z-score) [2]: 0.116 | glycan array binding signal (z-score) [3]: -0.2 | glycan array binding signal (z-score) [4]: 0.501 | glycan array binding signal (z-score) [5]: -0.29 | glycan array binding signal (z-score) (Neu5Ac(a2-6)GalNAc): -0.17 | glycan array binding signal (z-score) [6]: -0.366 | glycan array binding signal (z-score) [7]: -0.236 | glycan array binding signal (z-score) [8]: -0.144 | glycan array binding signal (z-score) [9]: -0.206 | glycan array binding signal (z-score) (Neu5Ac(a2-8)Neu5Ac): -0.199 | glycan array binding signal (z-score) [10]: -0.199 | glycan array binding signal (z-score) [11]: -0.06 | glycan array binding signal (z-score) [12]: -0.393 | glycan array binding signal (z-score) [13]: -0.248 | glycan array binding signal (z-score) [14]: 2.2 | glycan array binding signal (z-score) [15]: -0.293 | glycan array binding signal (z-score) [16]: -0.342 | glycan array binding signal (z-score) [17]: -0.294 | glycan array binding signal (z-score) [18]: 0.035 | glycan array binding signal (z-score) [19]: -0.322 | glycan array binding signal (z-score) [20]: -0.225 | glycan array binding signal (z-score) [21]: -0.229 | glycan array binding signal (z-score) [22]: -0.337 | glycan array binding signal (z-score) (Neu5Ac(b2-6)GalNAc): -0.152 | glycan array binding signal (z-score) [23]: -0.211 | glycan array binding signal (z-score) [24]: -0.305 | glycan array binding signal (z-score) [25]: -0.117 | glycan array binding signal (z-score) [26]: -0.244 | glycan array binding signal (z-score) [27]: -0.15 | glycan array binding signal (z-score) (Neu5Gc(a2-3)Gal(b1-4)Glc): -0.127 | glycan array binding signal (z-score) [28]: -0.387 | glycan array binding signal (z-score) [29]: 0.132 | glycan array binding signal (z-score) [30]: -0.159 | glycan array binding signal (z-score) [31]: -0.31 | glycan array binding signal (z-score) (Neu5Gc(a2-6)GalNAc): -0.066 | glycan array binding signal (z-score) [32]: -0.369 | glycan array binding signal (z-score) [33]: -0.277

— the supplement of paper PMC8728848
